Assay results as given in the supplement of paper PMC12217912.
The other results are listed elsewhere or left out. Sequences were assembled here from the parent chain. Inactive controls read about 0.05.

B1: TEV protease; numbered along this chain (parent)
chain: MGESLFKGPRDYNPISSSICHLTNESDGHTTSLYGIGFGPFIITNKHLFRRNNGTLVVQSLHGVFKVKDTTTLQQHLVDGRDMIIIRMPKDFPPFPQKLKFREPQREERICLVTTNFQTKSMSSMVSDTSCTFPSGDGIFWKHWIQTKDGQCGSPLVSTRDGFIVGIHSASNFTNTNNYFTSVPKNFMELLTNQEAQQWVSGWRLNADSVLWGGHKVFMVKPEEPFQPVKEATQL

Variants of: B1
Test: raw area under fraction-flipped curve 0-4 h after induction (AUC4h, not background-subtracted), DNA-recorder readout of cleavage of the substrate (dimensionless); higher = more cleavage of the substrate by the protease variant
Conditions: temperature: 34 °C; time window: 0-4 h after rhamnose induction
Procedure: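 In vivo DNA recorder in E. coli TOP10(DE3) ΔrhaA at 34 °C. Each TEVp single-site mutant (parent TEVp 0) is paired with a single-site variant of the 7-mer TEVs (canonical ENLYFQ|S). The substrate sits between flexible linkers in a Bxb1-sfGFP-TEVs-SsrA fusion, so cleavage stabilises Bxb1 and speeds flipping of a recombination array, read by NGS. The value is the raw area under the fraction-flipped curve over 0-4 h after rhamnose induction (AUC4h), with ≥20 reads per time point. It is not background-subtracted; inactive controls average about 0.047.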
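Note: Bxb1 expression induced with 0.2% (w/v) L-rhamnose at OD600 near 0.5, cultures sampled hourly, flipped fraction per protease–substrate barcode pair counted by paired-end Illumina sequencing.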

Variant	area with substrate ENCYFQS	area with substrate ENDYFQS	area with substrate ENEYFQS	area with substrate ENFYFQS	area with substrate ENHYFQS	area with substrate ENKYFQS	area with substrate ENNYFQS	area with substrate ENPYFQS	area with substrate ENQYFQS	area with substrate ENRYFQS	area with substrate ENSYFQS	area with substrate ENVYFQS	area with substrate ENGYFQS	area with substrate ENIYFQS	area with substrate ENTYFQS	area with substrate ENMYFQS	area with substrate ENYYFQS	area with substrate ENWYFQS
MGESLFKGPRDYNPISSSICHLTNESDGHTTSLYGIGFGPFIITNKHLFRRNNGTLVVQSLHGVFKVKDTTTLQQHLVDGRDMIIIRMPKDFPPFPQKLKFREPQREERICLVTTNFQYKSMSSMVSDTSCTFPSGDGIFWKHWIQTKDGQCGSPLVSTRDGFIVGIHSASNFTNTNNYFTSVPKNFMELLTNQEAQQWVSGWRLNADSVLWGGHKVFMVKPEEPFQPVKEATQL [T119Y]	0.0599	0.0657	0.0561	0.0559	0.0412	0.0669	0.0711	0.0571	0.0861	0.0721	0.0672	0.0755	–	–	–	–	–	–
MGESLFKGPRDYNPISSSICHLTNESDGHTTSLYGIGFGPFIITNKHLFRRNNGTLVVQSLHGVFKVKDTTTLQQHLVDGRDMIIIRMPKDFPPFPQKLKFREPQREERICLVTTNFQTKSMSSMVSDTSCTFPSGDGIFWKHWIQTKDGQCGSPLVPTRDGFIVGIHSASNFTNTNNYFTSVPKNFMELLTNQEAQQWVSGWRLNADSVLWGGHKVFMVKPEEPFQPVKEATQL [S158P]	0.0407	0.0565	0.0474	0.0419	0.0548	0.0573	0.0531	0.0372	0.0501	–	–	–	0.0809	0.0614	0.0407	–	–	–
MGESLFKGPRDYNPISSSICHLTNESDGHTTSLYGIGFGPFIITNKHLFRRNNGTLVVQSLHGVFKVKDTTTLQQHLVDGRDMIIIRMPKDFPPFPQKLKFREPQREERICLVTTNFQTKSMSSMVSDTSCTFPSGDGIFWKHWIQKKDGQCGSPLVSTRDGFIVGIHSASNFTNTNNYFTSVPKNFMELLTNQEAQQWVSGWRLNADSVLWGGHKVFMVKPEEPFQPVKEATQL [T147K]	0.0606	–	0.0633	–	–	–	–	0.0667	0.0686	–	0.0693	0.0817	–	0.0623	–	0.0568	–	–
MGESLFKGPRDYNPISSSICHLTNESDGHTTSLYGIGFGPFIITNKHLFRRNNGTLVVQSLHGVFKVKDTTTLQQHLVDGRDMIIIRMPKDFPPFPQKLKFREPQREERICLVTTNFQTKSMSSMVSDTSCTFPSGDGIFWKHWIQAKDGQCGSPLVSTRDGFIVGIHSASNFTNTNNYFTSVPKNFMELLTNQEAQQWVSGWRLNADSVLWGGHKVFMVKPEEPFQPVKEATQL [T147A]	0.0674	0.0825	0.0767	0.0547	0.0741	–	0.096	–	0.0688	0.0499	0.04	0.0439	–	–	0.0624	0.0778	0.053	–
MGESLFKGPRDYNPISSSICHLTNESDGHTTSLYGIGFGPFIITNKHLFRRNNGTLVVQSLHGVFKVKDTTTLQQHLVDGRDMIIIRMPKDFPPFPQKLKFREPQREERICLVTTNFQTKSMSSMVSDTSCTFPSGIGIFWKHWIQTKDGQCGSPLVSTRDGFIVGIHSASNFTNTNNYFTSVPKNFMELLTNQEAQQWVSGWRLNADSVLWGGHKVFMVKPEEPFQPVKEATQL [D137I]	0.0617	0.0494	0.0552	0.0624	0.0564	0.0716	0.0359	–	0.0623	0.0442	0.0686	0.0825	0.0587	0.12	0.0682	0.0964	–	–
MGESLFKGPRDYNPISSSICHLTNESDGHTTSLYGIGFGPFIITNKHLFRRNNGTLVVQSLHGVFKVKDTTTLQQHLVDGRDMIIIRMPKDFPPFPQKLKFREPQREERICLVTTHFQTKSMSSMVSDTSCTFPSGDGIFWKHWIQTKDGQCGSPLVSTRDGFIVGIHSASNFTNTNNYFTSVPKNFMELLTNQEAQQWVSGWRLNADSVLWGGHKVFMVKPEEPFQPVKEATQL [N116H]	0.0677	0.0635	–	–	0.0463	0.0541	–	–	–	–	0.0521	–	0.0164	–	0.0857	0.0451	–	–
MGESLFKGPRDYNPISSSICHLTNESDGHTTSLYGIGFGPFIITNKHLFRRNNGTLVVQSLHGVFKVKDTTTLQQHLVDGRDMIIIRMPKDFPPFPQKLKFREPQREERICLVTTNFQTKSMSSMVSDTSCTFPSGDGIFWKHWIQTKDIQCGSPLVSTRDGFIVGIHSASNFTNTNNYFTSVPKNFMELLTNQEAQQWVSGWRLNADSVLWGGHKVFMVKPEEPFQPVKEATQL [G150I]	0.0538	0.0634	0.059	0.054	0.0615	0.0663	0.0607	0.0591	0.0606	0.0577	0.0696	0.0668	0.0515	0.0616	0.0635	–	0.0543	0.0567
MGESLFKGPRDYNPISSSICHLTNESDGHTTSLYGIGFGPFIITNKHLFRRNNGTLVVQSLHGVFKVKDTTTLQQHLVDGRDMIIIRMPKDFPPFPQKLKFREPQREERICLVTTNFQTKSMSSMVSDTSCTAPSGDGIFWKHWIQTKDGQCGSPLVSTRDGFIVGIHSASNFTNTNNYFTSVPKNFMELLTNQEAQQWVSGWRLNADSVLWGGHKVFMVKPEEPFQPVKEATQL [F133A]	0.06	–	–	–	–	0.075	0.0609	–	0.0469	0.0492	–	0.0524	0.0709	–	0.0679	–	0.0604	0
MGESLFKGPRDYNPISSSICHLTNESDGHTTSLYGIGFGPFIITNKHLFRRNNGTLVVQSLHGVFKVKDTTTLQQHLVDGRDMIIIRMPKDFPPFPQKLKFREPQREERICLVTTNFQTKSMSSMVSDTSCTIPSGDGIFWKHWIQTKDGQCGSPLVSTRDGFIVGIHSASNFTNTNNYFTSVPKNFMELLTNQEAQQWVSGWRLNADSVLWGGHKVFMVKPEEPFQPVKEATQL [F133I]	0.0586	0.0616	0.0555	–	–	0.0631	0.0834	–	–	0.062	0.0479	0.0639	–	–	0.0643	0.0788	–	–
MGESLFKGPRDYNPISSSICHLTNESDGHTTSLYGIGFGPFIITNKHLFRRNNGTLVVQSLHGVFKVKDTTTLQQHLVDGRDMIIIRMPKDFPPFPQKLKFREPQREERICLVTTNFQTKSMSSMVSDTSCTFPSGDGIFWKHWISTKDGQCGSPLVSTRDGFIVGIHSASNFTNTNNYFTSVPKNFMELLTNQEAQQWVSGWRLNADSVLWGGHKVFMVKPEEPFQPVKEATQL [Q146S]	0.0671	–	–	0.0651	0.0499	0.0718	–	0.0513	0.0507	–	0.0611	–	–	0.0956	0.0741	–	–	–
